Assay results published in PubChem BioAssay AID1508623 (National Center for Advancing Translational Sciences (NCATS), 2021).
Hit rate of the full screen: of about 48,000 compounds, about 450 (0.94%) were called active. Inconclusive results (about 19%) are left out. The call rests on the fitted dose curve; in most records, active means well fitted inhibition curve with a large enough effect; inconclusive means small, poorly fitted or top-dose-only effect; inactive means no such curve, though single readings can be large or run the other way. The list shows a part of the results.

experiment: Primary qHTS for Identification of Small Molecule Inhibitors of Huntingtin Promoter Activity; details: HEK293 HTT promoter firefly luciferase reporter (activity 0% = vehicle and -100% = no light), 24 h; series mostly up to 57.5 µM; activity change, negative = inhibition: at the top concentration; further: nearly all actives have a fitted effect of over 50% in size
Method in brief: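 HEK293 luciferase promoter-reporter cells (2,500/well) plated 24 h, then compounds added at up to 57.5 uM final for 24 h at 37 °C. Firefly luminescence by Dual-Glo, normalized to vehicle (0%) and zero RLU (-100%).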

Activity change, negative = inhibition, inactive:
CCc1ccc(CNC(=O)CN2C(=O)CCn3nc(-c4cn(C)c5ccccc45)cc32)cc1 -2.41%
O=C(Nc1cccc(Cl)c1)C1CCCN1S(=O)(=O)c1cccc2cccnc12 (configuration not stated) -26.9%
Cn1nnnc1SCCNCc1ccc(OCc2ccc(Cl)cc2)cc1 -6.65%
CC(C)(C)c1nc(-c2cccc(NS(=O)(=O)c3c(F)cccc3F)c2F)c(-c2ccnc(N)n2)s1 -17%
Cc1cc(Cl)ccc1OCc1cc(=O)n2c3c(sc2n1)CCCC3 -10.9%
Cc1ccc(CN2C(=O)c3ccccc3Sc3ccc(C(=O)NCCCN4CCOCC4)cc32)cc1 -22.7%
Cc1oc(-c2cccc(Cl)c2)nc1CN1CCC(C(=O)NCCc2ccc(Cl)cc2)CC1 -13%
COc1cccc(OCC(=O)Nc2nnc3n2CCS3)c1 -5.22%
COc1ccc(C(=O)Nc2ccc(N3CCOCC3)c(C(F)(F)F)c2)cc1OC -38.7%
C[C@H]1O[C@@H](n2cc(F)c(=O)[nH]c2=O)[C@H](O)[C@@H]1O 5.97%
COc1cccc2c1CCCC2CCCN1CCN(C2CCCCC2)CC1 (configuration not stated) -3.98%
Cc1cccc(NC(=O)CSc2nc(=O)n(Cc3cccnc3)c3c2CCC3)c1C -22.5%
COc1ccccc1NC(=O)c1cc(S(=O)(=O)N2CCc3ccccc32)ccc1F -28.4%
COc1ccc(NC(=O)c2cc3c(=O)n(Cc4cccnc4)ccc3nc2C)cc1Cl 4.85%
Cc1cccc(N2CCN(c3c4c(nc5nncn35)CCC4)CC2)c1C -5.99%
COc1cc(-c2nnc(SCC(=O)Oc3ccccc3Cl)o2)cc(OC)c1OC 0.0194%
O=[N+]([O-])c1nccn1CO[C@@H](CO)[C@H](O)CO -8.75%
CN(C)c1ccc(C(CNS(=O)(=O)c2ccc(F)cc2)N2CCc3ccccc32)cc1 (configuration not stated) -21.6%
CC(C)CCN(Cc1ccco1)C(=O)Cn1ncc2c([nH]c3ccccc32)c1=O -27.4%
O=c1c(N2CCc3ccccc3C2)csc2ccc(Br)cc12 11%
Cc1cccc(C(=O)Nc2ccc(N3CCN(c4ccc(F)cc4)CC3)c(C(=O)O)c2)c1 1.21%
Cc1ccn2c(Nc3ccc4c(c3)OCCO4)c(-c3ccc(C)s3)nc2c1 30%
Cc1ccc2nc(SCC(=O)Nc3ccc(C#N)cc3)[nH]c2c1 -13.7%
COc1ccc(OC)c(NC(=O)CCc2nc(-c3ccc(C)cc3)no2)c1 -22.4%
Cc1c(C(=O)N2CCC(C)CC2)c(S(=O)(=O)N2CCN(c3cccc(Cl)c3)CC2)c(C)n1C -23.4%
COc1ccc(S(=O)(=O)c2cn(Cc3ccccc3)c3cc(F)c(F)cc3c2=O)cc1 -13.4%
CN1C(=O)c2[nH]nc(-c3ccc(F)cc3)c2C1c1ccccn1 (configuration not stated) -6.51%
COc1ccc(Nc2cc(C(=O)NCc3ccccc3)c3ccccc3n2)cc1OC 0%
O=c1c(S(=O)(=O)c2ccc(Cl)cc2)cn(Cc2ccc(F)cc2)c2ccc(F)cc12 -22.6%
CCCCn1c(SCC(=O)Nc2ccc(F)cc2)nc2c(sc3ccccc32)c1=O -12.6%
C[C@H](NC(CCc1ccccc1)C(=O)O)C(=O)N1CCC[C@H]1C(=O)O (some centres not stated) -26.7%
CC(C)c1ccc(NC(=O)Cn2nnc(C(=O)NCc3cccs3)c2N)cc1 -8.94%
O=C(CSc1nnc(-c2ccc(Br)cc2)n1-c1ccccc1)c1ccccc1 -10.2%
CNC(=O)CSc1nnc(NC(=O)Nc2ccccc2)s1 23.2%
Cc1ccc2oc3c(c(=O)c2c1)C(c1ccc(OCC(N)=O)cc1)N(Cc1ccc2c(c1)OCO2)C3=O (configuration not stated) 3.62%
COc1ccc(NC(=O)C(=O)NCC2(c3ccccc3)CCCC2)c(OC)c1 -3.14%
CCOc1ccc(/C=C/c2nc(C#N)c(N3CCN(c4ccccc4)CC3)o2)cc1 -1.89%
COc1ccc(CNC(=O)CN2C(=O)COc3ccc(S(=O)(=O)N4CCOCC4)cc32)cc1 -3.94%
CCOCN(C(=O)Cn1cnc2cc(C)c(C)cc21)c1c(C)cccc1CC -12.1%
CC1CCCCN1C(=O)CSc1nnc(-c2ccccc2Cl)o1 (configuration not stated) 10.2%
COc1ccccc1CNC(=O)Cn1c(=O)ccc2cc(S(=O)(=O)N3CCCC3)ccc21 7.56%
COc1ccc(-c2cn3nc(N4CCC(C(=O)Nc5ccc(C)cc5)CC4)sc3n2)cc1 2.32%
COc1ccc(Br)cc1CNC(=O)C1COc2ccccc2C1 (configuration not stated) 23.8%
O=C(c1ccc(CS(=O)(=O)c2c(Cl)cccc2Cl)o1)N1CCN(c2ccccc2)CC1 -36.2%
Cc1ccc(-n2c(SCC(N)=O)nc3c([nH]c4ccccc43)c2=O)cc1 -13.6%
Cc1cncn1CCc1nc2c3ccccc3nc(SCC(=O)Nc3ccccc3F)n2n1 -4.11%
Cc1ccc(Cl)cc1N1CCN(c2ncnc3onc(-c4ccc(F)cc4)c23)CC1 -0.0359%
CCOC(=O)N1CCN(C(=O)CN(c2cc(C)ccc2OC)S(=O)(=O)c2ccc(C)cc2)CC1 -16.1%
CC(C)(C)c1ccc(-c2noc(CCC(=O)Nc3cccc(Cl)c3)n2)cc1 -85.5%
CCc1ccc(-n2nc(C)c3c(C(=O)Nc4cc(C)ccc4C)cc(C)nc32)cc1 -11.1%
CCOc1ccccc1CNC(=O)C1CCCN(S(=O)(=O)c2ccc3c(ccn3C)c2)C1 (configuration not stated) -0.615%
CC1CCN(S(=O)(=O)c2nnc(NC(=O)c3cccc(F)c3)s2)CC1 -29.2%
COC(=O)c1sc2cccc(F)c2c1S(=O)(=O)N1CCN(c2ccc(C)cc2C)CC1 -9.04%
COc1nc(-c2ccc(C)cc2)ccc1-c1noc(-c2ccc(C(C)(C)C)cc2)n1 -11.4%
COc1ccccc1N1CCN(c2cc(C)nc3nc(-c4ccc(Cl)cc4)nn23)CC1 -20.6%
COc1ccc(OC)c(S(=O)(=O)NCCc2csc3nc(-c4ccccc4)nn23)c1 -3.4%
Cc1cccc(N2CCN(C(=O)c3ccc4c(c3)c(C)c(C)n4C)CC2C)c1 (configuration not stated) -1.49%
Cc1ccc(NC(=O)c2cc(S(=O)(=O)N3CCCC3)c[nH]2)c(C)c1 -6.88%
CCOc1ccc2oc(=O)cc(CN3CCN(c4ccc(Cl)cc4)CC3)c2c1 -11.7%
CC(=O)N1CCc2cc(Br)cc(S(=O)(=O)CCC(=O)Nc3ccc(C)cc3Cl)c21 -9.57%
CCc1c(C)c2ccc(O)c(CN3CCN(c4ccccc4)CC3)c2oc1=O -0.914%
CCOC(=O)c1c(NC(=O)COc2ccc(Cl)cc2C)sc(C(C)=O)c1C 4.72%
